# Measurements from patent EP2330125A2 (priority 2005, dated 2007).
# Assay type: in vivo, NIH/Swiss mice
# Details: Dose 25 nmol/Kg
sequence,measurement,value
KCNTATCATQRLANFLVRSSNNLGPVLPPTNVGSNTY [rat amylin],"Mouse Food Intake, % BASAL 180 min",-35.5 % BASAL
